Measurements reported in the supplement of paper PMC12217912.
Some of the results follow. The full chains were built here from the parent and the listed change. Values near 0.05 are background.

B1: TEV protease; numbered along this chain (parent)
chain: MGESLFKGPRDYNPISSSICHLTNESDGHTTSLYGIGFGPFIITNKHLFRRNNGTLVVQSLHGVFKVKDTTTLQQHLVDGRDMIIIRMPKDFPPFPQKLKFREPQREERICLVTTNFQTKSMSSMVSDTSCTFPSGDGIFWKHWIQTKDGQCGSPLVSTRDGFIVGIHSASNFTNTNNYFTSVPKNFMELLTNQEAQQWVSGWRLNADSVLWGGHKVFMVKPEEPFQPVKEATQL

Variants of: B1
Assay: raw area under fraction-flipped curve 0-4 h after induction (AUC4h, not background-subtracted), DNA-recorder readout of cleavage of the substrate (dimensionless); higher = more cleavage of the substrate by the protease variant
Conditions: temperature: 34 °C; time window: 0-4 h after rhamnose induction
Protocol: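 In vivo DNA recorder in E. coli TOP10(DE3) ΔrhaA at 34 °C. Each TEVp single-site mutant (parent TEVp 0) is paired with a single-site variant of the 7-mer TEVs (canonical ENLYFQ|S). The substrate sits between flexible linkers in a Bxb1-sfGFP-TEVs-SsrA fusion, so cleavage stabilises Bxb1 and speeds flipping of a recombination array, read by NGS. The value is the raw area under the fraction-flipped curve over 0-4 h after rhamnose induction (AUC4h), with ≥20 reads per time point. It is not background-subtracted; inactive controls average about 0.047.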
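Note: Bxb1 expression induced with 0.2% (w/v) L-rhamnose at OD600 near 0.5, cultures sampled hourly, flipped fraction per protease–substrate barcode pair counted by paired-end Illumina sequencing.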

Variant | area with substrate ENLYCQS | area with substrate ENLYDQS | area with substrate ENLYEQS | area with substrate ENLYHQS | area with substrate ENLYKQS | area with substrate ENLYMQS | area with substrate ENLYNQS | area with substrate ENLYRQS | area with substrate ENLYSQS | area with substrate ENLYTQS | area with substrate ENLYVQS | area with substrate ENLYIQS | area with substrate ENLYQQS | area with substrate ENLYYQS | area with substrate ENLYGQS | area with substrate ENLYPQS | area with substrate ENLYWQS | area with substrate ENLYLQS
T132L | 0.0835 | 0.0621 | 0.0481 | 0.0805 | 0.0652 | 0.0803 | 0.075 | 0.0503 | 0.0889 | 0.0741 | 0.106 |  |  |  |  |  |  | 
K66C | 0.103 | 0.102 | 0.0674 | 0.0707 |  |  | 0.0684 |  |  |  |  | 0.145 | 0.0643 | 0.0594 |  |  |  | 
D149C | 0.103 | 0.0635 | 0.0726 | 0.0727 | 0.0633 |  |  |  |  |  |  | 0.0785 |  | 0.0641 | 0.067 | 0.0632 | 0.0436 | 
F180D | 0.0511 | 0.0474 | 0.0555 |  | 0.0566 | 0.0496 |  | 0.0557 | 0.0435 | 0.0435 | 0.0787 | 0.0524 | 0.0422 |  |  | 0.0409 |  | 
M219K | 0.0558 | 0.0576 |  | 0.058 | 0.0567 | 0.0599 | 0.0387 | 0.0378 | 0.062 | 0.0512 | 0.0658 |  | 0.0541 | 0.0467 | 0.0722 |  |  | 0.0433
I145W | 0.0531 | 0.065 | 0.0571 | 0.0601 | 0.0385 | 0.0557 |  | 0.0642 |  | 0.0682 | 0.11 | 0.0542 | 0.0373 | 0.0549 | 0.0586 | 0.0551 |  | 
T30V | 0.0991 | 0.0593 | 0.0869 | 0.0815 | 0.062 | 0.0666 |  |  |  |  | 0.123 | 0.118 | 0.0608 |  | 0.0797 | 0.0663 | 0.0937 | 
V67H | 0.0898 | 0.0512 | 0.0203 | 0.0458 | 0.0584 | 0.0762 |  | 0.0568 |  |  | 0.118 |  | 0.0696 | 0.0636 | 0.0661 | 0.0713 |  | 
R50Q | 0.0911 | 0.07 | 0.0688 | 0.0739 | 0.0647 |  | 0.0699 | 0.0698 |  |  | 0.142 |  | 0.0555 |  | 0.0734 | 0.0837 | 0.0998 | 
Q234C | 0.0809 |  | 0.0684 | 0.0401 | 0.0783 | 0.0816 |  | 0.047 |  | 0.105 | 0.104 | 0.119 | 0.0652 |  | 0.0608 | 0.0736 | 0.0483 | 
S158R | 0.0484 |  | 0.038 | 0.0442 |  | 0.0387 | 0.0684 | 0.0499 | 0.044 | 0.0557 | 0.0299 |  | 0.0692 | 0.039 | 0.055 | 0.234 |  | 0.0528
S130L | 0.0734 | 0.0515 | 0.0535 |  | 0.0248 |  | 0.0624 |  |  | 0.0712 |  | 0.0972 |  | 0.0607 | 0.0709 | 0.0695 |  | 0.0667
Q197S | 0.0673 | 0.0536 | 0.0583 | 0.076 | 0.0569 |  | 0.0787 |  |  |  | 0.103 | 0.0987 |  | 0.06 | 0.0547 | 0.072 |  | 0.0796
R106L | 0.133 | 0.0607 | 0.0606 | 0.121 | 0.0431 | 0.104 | 0.0696 |  | 0.0824 | 0.0657 |  | 0.152 |  |  | 0.0647 |  | 0.0608 | 0.101
